# Test results published in the supplement of paper PMC3334620.
# Over roughly 33,000 sequences, “E-score (-0.5 to 0.5)” has its median near -0.035; the highest 2% begin near 0.34. Some of the results follow.
# Biological target: T1, Mot3 (UniProt P54785)
# T1 sequence: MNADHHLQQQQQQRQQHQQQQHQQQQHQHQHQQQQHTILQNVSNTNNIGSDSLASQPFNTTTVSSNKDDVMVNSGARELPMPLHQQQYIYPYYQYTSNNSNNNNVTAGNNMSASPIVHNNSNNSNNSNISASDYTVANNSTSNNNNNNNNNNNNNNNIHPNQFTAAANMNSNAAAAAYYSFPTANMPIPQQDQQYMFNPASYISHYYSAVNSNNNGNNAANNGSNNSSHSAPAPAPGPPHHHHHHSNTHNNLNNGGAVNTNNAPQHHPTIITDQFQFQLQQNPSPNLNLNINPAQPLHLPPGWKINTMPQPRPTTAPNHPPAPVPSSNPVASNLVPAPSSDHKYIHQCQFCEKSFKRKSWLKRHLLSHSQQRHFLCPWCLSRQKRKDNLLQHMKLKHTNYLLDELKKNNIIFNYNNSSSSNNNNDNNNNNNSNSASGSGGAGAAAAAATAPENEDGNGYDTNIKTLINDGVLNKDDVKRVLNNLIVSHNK
# Test: PBM E-score (8-mer binding enrichment) (E-score (-0.5 to 0.5)); higher = stronger / more preferred TF binding; most listed sequences are background and not binding sites
# Settings: protein concentration: 200 nM; construct: GST-full length
# Experimental: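 Universal 'all 10-mer' protein binding microarrays (Agilent AMADID 015681) probed with GST-tagged S. cerevisiae TFs (full-length or DBD) made by in vitro transcription/translation (PURExpress), about 100-200 nM. Bound TF was detected with fluorescent anti-GST. Each ungapped 8-mer (which stands for itself and its reverse complement) is scored by the PBM enrichment score (E-score), a modified Wilcoxon-Mann-Whitney statistic from -0.5 to +0.5, computed with the Universal PBM Analysis Suite. Scale: above 0.35 generally sequence-specific binding.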
row,Sequence,PBM E-score
1,ACAATTAT,0.204
2,ACCAGACT,-0.13
3,CCTAAAAA,0.146
4,TGGCAAAA,0.0985
5,CCAGTTAC,-0.0733
6,ATCCCAGG,-0.181
7,ATATAGTG,-0.0368
8,ACCGCACG,-0.0455
9,ACTCGCAC,-0.285
10,CCCCTATC,-0.227
11,GAAGAGCC,-0.106
12,AGTCCGTA,-0.00492
13,GCCCCAAC,-0.131
14,AGGTCATC,-0.243
15,AATGTTCC,0.187
16,CCCGTCGG,-0.086
17,CAATTGCG,0.138
18,GTTCACTA,-0.0105
19,GCCGTTAA,-0.161
20,AAGAGGTC,-0.361
21,ATCAACTG,-0.0772
22,ACAGCCTA,0.126

row,Sequence,PBM E-score
1,GCATCCTA,-0.173
2,CAGGAGAC,0.0282
3,CTTTGCAC,0.149
4,ACATAGCG,0.188
5,GGGAAGTA,-0.0915
6,TCCCCGAA,-0.225
7,GGTCCTAA,-0.0727
8,CGCCTAGA,-0.088
9,CATAGGCA,0.476
10,GACGCATC,-0.109
11,GTCACTTA,0.0144
12,ATGGGCCG,-0.159
13,TTAATTAA,0.0121
14,ACGACTCA,0.0427
15,CAATCGCA,-0.0193
16,CCGCTGTA,-0.0031
17,CGCCCACG,-0.3
18,AGTATCTA,-0.0872
19,CCTTAGGC,0.146
20,AGTGTGCG,-0.149
21,GGATCTGA,-0.193
22,ATTCGTCA,-0.0191

row,Sequence,PBM E-score
1,ACCCTGAC,-0.152
2,ATGGTATC,-0.272
3,GTTATTGA,0.0955
4,CAATGGGA,-0.0576
5,ACGATTCC,-0.0992
6,ATGGTGTC,-0.0757
7,GAATGGAC,-0.107
8,CCGTATTA,0.123
9,AAATATGC,-0.131
10,TAGGTATA,-0.0008
11,TCCGCCCA,-0.14
12,GGTGGCTA,-0.108
13,AAATCCCA,-0.154
14,CCAACCGC,-0.169
15,AATTTAGA,-0.016
16,GATTATTA,0.104
17,CCGGGTCC,-0.279
18,TAATACAA,0.257
19,AAGATTAT,-0.0537
20,TCCCTTAA,0.126
21,GTTGCAGA,0.0146
22,TTCTACAA,0.204

row,Sequence,PBM E-score
1,AGAATGAT,0.0126
2,GTTCGTAA,0.145
3,GTTGTCCA,0.0581
4,AAATCCAG,-0.0517
5,AAGTACTC,0.0593
6,CAATAGTA,0.138
7,AGCTGTGA,-0.134
8,CTTTAGTA,0.025
9,TGAAGGCA,0.483
10,CATGCATA,0.226
11,TCGGTGCA,0.0212
12,TAGTGGAA,-0.00095
13,CTCACATA,0.0931
14,CGGCCCCA,-0.362
15,ATCGAGCC,-0.12
16,GCTTAACA,0.229
17,GCGCCGGA,-0.175
18,CGGCGATC,-0.211
19,CCGGCAGA,-0.299
20,ACGCTTAT,-0.0877
21,GACCAGGC,0.0599
22,TAATTCCA,0.0253

row,Sequence,PBM E-score
1,ATTTGGAA,0.0422
2,CTAGGATC,-0.0652
3,GAGTCCTA,-0.116
4,ATAGGGTA,-0.0483
5,GCAGAGCA,-0.113
6,AACTCCAC,0.0809
7,AAGGTCAA,0.00464
8,CTTGCGAC,-0.377
9,AGAGACAG,-0.151
10,AGATTAGC,-0.0474
11,GTGCAGAA,0.0245
12,CAATGGTC,-0.00491
13,CAAATCCG,-0.0986
14,AAAGGTTC,0.12
15,TCAGTGCA,0.0186
16,CAGCAGGA,0.11
17,AACCGGGA,-0.223
18,GAACACAC,0.173
19,CTTGGTCC,-0.0537
20,CACAACAG,0.181
21,AGAATACG,0.227
22,AAGGGAAG,0.0435
